# Source: the supplement of paper PMC3334620
# Whole data set: some 33,000 sequences, median “E-score (-0.5 to 0.5)” near -0.012, cut for the highest 2% near 0.29. The list shows a part of the results.
# Biological target: T1, Ybr033w (UniProt P38073)
# T1 sequence: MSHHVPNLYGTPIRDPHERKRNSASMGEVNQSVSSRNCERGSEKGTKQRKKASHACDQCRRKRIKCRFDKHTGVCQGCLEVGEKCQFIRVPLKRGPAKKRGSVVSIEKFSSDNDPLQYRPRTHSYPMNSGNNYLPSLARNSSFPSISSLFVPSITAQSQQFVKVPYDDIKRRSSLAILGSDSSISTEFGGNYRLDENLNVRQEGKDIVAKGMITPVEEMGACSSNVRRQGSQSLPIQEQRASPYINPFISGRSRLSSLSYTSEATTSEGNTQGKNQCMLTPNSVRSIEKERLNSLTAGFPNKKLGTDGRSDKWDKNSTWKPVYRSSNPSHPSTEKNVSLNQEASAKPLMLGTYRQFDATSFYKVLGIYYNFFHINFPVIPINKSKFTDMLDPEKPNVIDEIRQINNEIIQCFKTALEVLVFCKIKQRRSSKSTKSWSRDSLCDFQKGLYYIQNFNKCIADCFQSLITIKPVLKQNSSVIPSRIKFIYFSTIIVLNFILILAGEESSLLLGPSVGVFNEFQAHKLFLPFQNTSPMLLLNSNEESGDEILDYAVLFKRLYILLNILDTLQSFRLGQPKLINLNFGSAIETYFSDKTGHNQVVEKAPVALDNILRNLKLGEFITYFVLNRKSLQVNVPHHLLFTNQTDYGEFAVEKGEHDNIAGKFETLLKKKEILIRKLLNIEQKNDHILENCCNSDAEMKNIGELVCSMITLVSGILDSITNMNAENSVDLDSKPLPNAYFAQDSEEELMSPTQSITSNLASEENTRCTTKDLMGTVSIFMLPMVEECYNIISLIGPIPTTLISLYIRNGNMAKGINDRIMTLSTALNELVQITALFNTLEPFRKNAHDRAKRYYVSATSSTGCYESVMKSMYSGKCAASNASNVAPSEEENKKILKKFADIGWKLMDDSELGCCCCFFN
# Assay: PBM E-score (8-mer binding enrichment) (E-score (-0.5 to 0.5)); higher = stronger / more preferred TF binding; most listed sequences are background and not binding sites
# Details: protein concentration: 200 nM; construct: GST-full length
# Procedure: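 Universal 'all 10-mer' protein binding microarrays (Agilent AMADID 015681) probed with GST-tagged S. cerevisiae TFs (full-length or DBD) made by in vitro transcription/translation (PURExpress), about 100-200 nM. Bound TF was detected with fluorescent anti-GST. Each ungapped 8-mer (which stands for itself and its reverse complement) is scored by the PBM enrichment score (E-score), a modified Wilcoxon-Mann-Whitney statistic from -0.5 to +0.5, computed with the Universal PBM Analysis Suite. Scale: above 0.35 generally sequence-specific binding.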
row,Sequence,PBM E-score
1,AGTCGCAA,0.0957
2,ATTAATAG,0.373
3,AAGGCCCT,-0.136
4,CCCACCAA,-0.105
5,CTCAAAGC,0.107
6,CTAGAACA,0.166
7,CCGTAAGA,-0.131
8,ACCTTAGC,-0.0632
9,GGGCCCCC,-0.299
10,AACCCCGA,-0.0425
11,TGAGCGAA,0.129
12,AGGGTCAT,-0.252
13,AGCGTACG,-0.198
14,GTGTAGTA,-0.0213
15,CTGGCTGA,-0.152
16,AACGTCGT,0.0674
17,AGGTAGGA,-0.108
18,GACCTAAA,0.0634
19,ACACGATA,0.178
20,GAAAGCAA,0.0974
21,TGGTCCAA,-0.133
22,CTAGGGAG,-0.172
23,CCCACCGC,-0.0625
24,CAGCGAAG,-0.165
25,GACCTCAA,0.047

row,Sequence,PBM E-score
1,ATCTCCTG,0.116
2,GCGGCGCC,-0.201
3,GCTCGAAA,0.00319
4,ATTGTTCG,0.244
5,GCACGCCA,-0.206
6,CAACCGAG,-0.0277
7,TCTCTAAA,-0.153
8,ATTCAGGA,0.0525
9,ATAGAGGC,-0.0264
10,CCATATGA,-0.0574
11,GCATGGTA,-0.0754
12,AAAGAACT,0.127
13,AGTATCGC,-0.165
14,CTTCACGA,-0.221
15,GTATCGAA,0.239
16,CTTTTCGA,0.11
17,CGAACAAA,0.191
18,TATTCGCA,0.123
19,GGTTCAGA,0.053
20,GGTTTTGA,0.168
21,TCTGCCCA,-0.00667
22,AGTGCGAT,-0.127
23,TCAATAAA,0.245
24,CCGATACC,-0.122
25,TCCAGAGA,-0.00197

row,Sequence,PBM E-score
1,CTTTTGGA,0.0334
2,AGAGGACC,-0.179
3,CCCTCACA,-0.117
4,ACCATCTC,-0.0025
5,CGCATTAA,0.234
6,AACCTTGG,-0.0337
7,CCTCCTGC,-0.0702
8,CAACCCAG,-0.174
9,CTGGACAA,-0.11
10,CGACAAAA,0.195
11,ACCACCGA,-0.118
12,GACTCAGA,-0.0988
13,AATTTGAC,0.24
14,AAGCCCCG,-0.249
15,TACCGAGA,-0.226
16,CAGACCAC,-0.0942
17,TTGAGCAA,-0.136
18,GAGTACGC,-0.0885
19,GCAGAGAC,-0.354
20,ACTGCATC,0.109
21,CGGTTAAA,0.133
22,GAGGTTGA,-0.0641
23,CCTAGCGA,-0.229
24,ATTATAAA,0.229
25,AAGACGAG,-0.0642

row,Sequence,PBM E-score
1,ACTCGCGG,-0.0337
2,AGGGAGGC,-0.273
3,ATGTCACG,0.0332
4,CGATGATC,0.148
5,GAGGCAAA,0.0439
6,GACGGTGC,-0.0595
7,AGCGTTGA,-0.0485
8,GTGGCCAC,-0.159
9,TGGACACA,-0.116
10,GCAGGGTA,-0.0735
11,ATGAGGTG,-0.122
12,AATCCCTG,0.0878
13,ACTACACT,0.00844
14,ACGATAAC,0.208
15,ATCGCTCG,-0.0925
16,TTTATAAA,0.168
17,ACTGGAAC,0.072
18,AAGCCAGT,-0.101
19,AGTCGATG,-0.147
20,CGACCCCA,-0.198
21,CTCAACCA,0.00684
22,ACGGTTGG,-0.0461
23,CACGCACC,-0.0822
24,ACTAGGCT,-0.0222
25,ACCAGTAC,-0.0613

row,Sequence,PBM E-score
1,CCTTCTAG,-0.184
2,CTGTCTGC,-0.25
3,AGGCTAGA,-0.186
4,ATTCGCTA,-0.0123
5,AATCATCC,0.218
6,AAACCGTA,-0.0403
7,CATACGGC,0.01
8,GATATAGA,0.127
9,AGGGCGCC,-0.179
10,CTCATCAA,0.0929
11,ATGATCTA,0.228
12,CGATAGCA,-0.156
13,TAAACCTA,0.11
14,TCCGTAGA,-0.095
15,CAGGCTTA,-0.148
16,CTGGGTAC,-0.197
17,AGTGGAAC,0.0284
18,ACGGTAGG,-0.0769
19,AGGTCACT,-0.164
20,AGCGAACC,0.0724
21,GCCTTCCC,-0.292
22,TCGTACGA,0.0409
23,GCATGGCC,-0.215
24,AACCACGG,-0.102
25,ATATAATC,0.252

row,Sequence,PBM E-score
1,CCCAGCGG,-0.322
2,ATTGGGCC,-0.0192
3,CGGCATTA,0.0191
4,AGGAGGAC,-0.379
5,CCGCTCTA,-0.134
6,CAATGGGG,-0.0408
7,CTGGGGGA,-0.277
8,CGAACACC,-0.132
9,CATAGTTC,-0.0864
10,AATGAACG,0.0676
11,AATACGAG,0.225
12,AACCATCC,-0.0803
13,AACCTACC,-0.112
14,AACAAAAT,0.291
15,CAGGCTCC,-0.245
16,AGCTAGGG,-0.139
17,ACTCTCGA,-0.0306
18,CAGCCCAC,-0.0618
19,GCGGGGCC,-0.246
20,CGTATTAA,0.108
21,ACCCTATG,0.052
22,ACAGTCCG,-0.184
23,ACTATCGC,-0.0121
24,CCCGGCCC,-0.275
25,TATAAAGA,0.181

row,Sequence,PBM E-score
1,ACTAAGTC,0.0517
2,GCCAATAA,0.097
3,AAAGCTGT,0.199
4,CTTCTTAC,-0.0554
5,AAGCGGCC,-0.259
6,CGGCCTGA,-0.243
7,CCGTACCG,-0.198
8,ATTTAGAA,0.22
9,CTGGTCAA,0.0335
10,CTAGACCA,-0.0132
11,ACGGAAGA,0.338
12,ATATTATA,0.227
13,ATACACCG,0.05
14,CACTCCTC,-0.339
15,AGCTCCGG,-0.162
16,CTACGACC,-0.0526
17,CCGGTCTA,-0.206
18,AACCATTA,0.188
19,AGGAGCTC,-0.19
20,CAGGTCTA,0.0409
21,AGACCATC,-0.0542
22,GAGGATGA,0.00075
